Measurements from the supplement of paper PMC8285479.
Where a name gives a salt, the structure may show the parent alone. ± gives the standard deviation of the averaged measurements. In all, about 1,900 compounds were measured (“normalised cell viability (NPI; 0 = phenylarsine oxide control, 1 = DMSO control)”: median about 1, lowest 2% from about 0.039 on). The list shows a part of the results.

Tested on: NCI-H1944
Assay: normalised cell viability (NPI; 0 = phenylarsine oxide control, 1 = DMSO control) (fraction of DMSO control); NCI-H1944 is a non-small cell lung cancer line; higher = more viable cells (less compound toxicity)
Conditions: 6 days
[1] = glucocorticoid arm: hydrocortisone 2.75 uM co-treatment, compound 1 µM
[2] = glucocorticoid arm: hydrocortisone 2.75 uM co-treatment, compound 5 µM
[3] = glucocorticoid arm: hydrocortisone 2.75 uM pre-treated 2 days and continued, compound 1 µM
[4] = glucocorticoid arm: hydrocortisone 2.75 uM pre-treated 2 days and continued, compound 5 µM
[5] = glucocorticoid arm: vehicle, compound 1 µM
[6] = glucocorticoid arm: vehicle, compound 5 µM
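Also: CTB read-out in 384-well plates, mean of triplicate wells, normalised per plate against 1 µM phenylarsine oxide and 0.1% DMSO, compounds added 24 h after seeding.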

| Structure (SMILES) | normalised cell viability [1] | normalised cell viability [2] | normalised cell viability [3] | normalised cell viability [4] | normalised cell viability [5] | normalised cell viability [6] |
| --- | --- | --- | --- | --- | --- | --- |
| O=C(O)CNC(=O)c1c(O)c2ccccc2n(Cc2ccccc2)c1=O | 0.9887 ± 0.004 | 1.03 ± 0.015 | 1 ± 0.023 | 1.02 ± 0.015 | 0.995 ± 0.0027 | 1.01 |
| CCCN1C[C@H](CSC)C[C@@H]2c3cccc4[nH]cc(c34)C[C@H]21 [Pergolide mesylate] | 1.03 ± 0.011 | 0.993 ± 0.029 | 1.027 ± 0.0058 | 1.02 | 1.007 ± 0.0058 | 0.984 ± 0.012 |
| CCCN1C[C@H](CSC)C[C@@H]2c3cccc4[nH]cc(c34)C[C@H]21 [Pergolide methanesulfonate] | 0.971 ± 0.002 | 0.988 ± 0.011 | 0.999 ± 0.036 | 1.02 ± 0.017 | 0.973 ± 0.0027 | 0.9703 ± 0.0057 |
| CCCCc1ccc(C(=O)O)nc1 [Fusaric acid] | 1.01 ± 0.012 | 0.9917 ± 0.0051 | 1.002 ± 0.0072 | 0.985 ± 0.032 | 1.01 | 0.99967 ± 0.00058 |
| OC1CCCCC1N1CCC(c2ccccc2)CC1 (racemic) [(±)-Vesamicol hydrochloride] | 0.9747 ± 0.0049 | 0.91 ± 0.021 | 0.875 ± 0.21 | 0.978 ± 0.022 | 0.9897 ± 0.0025 | 0.9897 ± 0.0076 |
| N.N.[Cl][Pt][Cl] [Cisplatin] |  |  | 1.01 |  |  |  |
| Oc1ccc2c3c1O[C@H]1c4[nH]c5c(c4C[C@@]4(O)[C@@H](C2)N(CC2CC2)CC[C@]314)C[C@@]1(O)[C@H]2Cc3ccc(O)c4c3[C@@]1(CCN2CC1CC1)[C@H]5O4 [nor-Binaltorphimine dihydrochloride] | 1 ± 0.011 | 1.01 ± 0.01 | 1.01 ± 0.01 | 1.04 ± 0.08 | 0.9997 ± 0.0093 | 1 ± 0.018 |
| C[N+](C)(C)CC#CCOC(=O)Nc1cccc(Cl)c1 | 0.991 ± 0.021 | 0.998 ± 0.013 | 0.872 ± 0.21 | 0.995 ± 0.022 | 1 ± 0.017 | 1.001 ± 0.0081 |
| CN1C[C@@H](NS(=O)(=O)N(C)C)C[C@@H]2c3cccc4c3c(cn4C)C[C@H]21 [Mesulergine hydrochloride] | 0.997 ± 0.0027 | 0.968 ± 0.02 | 1 ± 0.015 | 1.04 ± 0.076 | 0.9727 ± 0.0068 | 0.972 ± 0.0056 |
| CC(=O)Oc1ccc(/C=C/c2cc(OC(C)=O)cc(OC(C)=O)c2)cc1 [Triacetylresveratrol] | 1.002 ± 0.0094 | 0.999 ± 0.019 | 1 ± 0.011 | 1.01 ± 0.017 | 0.992 ± 0.014 | 0.998 ± 0.017 |
| Cc1ncc(CNC(=O)N(CCCl)N=O)c(N)n1 [Nimustine hydrochloride] | 1.017 ± 0.0058 | 1.02 ± 0.018 | 1.013 ± 0.0058 | 0.889 ± 0.24 | 0.9977 ± 0.0021 | 1.01 ± 0.012 |
| COc1ccc2[nH]cc(CCN)c2c1 [O-Methylserotonin hydrochloride] | 1.013 ± 0.0058 | 1.03 | 1.01 ± 0.014 | 1.04 ± 0.055 | 0.9987 ± 0.0015 | 1.01 ± 0.018 |
| CO[C@H]1CC=C2CCN3CCC4=C(CC(=O)OC4)[C@]23C1 [Dihydro-beta-erythroidine hydrobromide] | 0.9913 ± 0.0055 | 1 ± 0.016 | 0.9997 ± 0.0091 | 0.988 ± 0.019 | 0.9943 ± 0.0015 | 0.991 ± 0.011 |
| OC[C@H]1O[C@@H](n2cnc3cc(Cl)c(Cl)cc32)[C@H](O)[C@@H]1O [5,6-Dichlorobenzimidazole riboside] | 1.007 ± 0.0058 | 0.998 ± 0.013 | 1.007 ± 0.0058 | 1.03 ± 0.01 | 0.988 ± 0.008 | 0.991 ± 0.0053 |
| COc1cc(C=C(C#N)C#N)cc(O)c1O [Tyrphostin AG 34] | 1.02 ± 0.015 | 1.02 ± 0.017 | 0.896 ± 0.23 | 1.02 ± 0.015 | 1.03 ± 0.01 | 1.023 ± 0.0058 |
| C[N+]1(C)CCOC(O)(c2ccc(-c3ccc(C4(O)C[N+](C)(C)CCO4)cc3)cc2)C1 (centres undefined) [Hemicholinium-3] | 1.006 ± 0.0075 | 1.017 ± 0.0058 | 1.017 ± 0.0058 | 1 ± 0.0095 | 1.003 ± 0.0058 | 1 |
| Nc1ccncc1 [4-Aminopyridine] | 0.9723 ± 0.0046 | 0.971 ± 0.0072 | 0.98 ± 0.006 | 0.981 ± 0.028 | 0.989 ± 0.013 | 0.99 ± 0.0036 |
| COc1ccc(-n2nc(C(F)(F)F)cc2-c2ccc(Cl)cc2)cc1 | 0.996 ± 0.0069 | 0.999 ± 0.036 | 0.955 ± 0.1 | 0.997 ± 0.025 | 1.017 ± 0.0058 | 1.013 ± 0.0058 |
| CCS(=O)(=O)Nc1cccc(C(=C2CCCCC2)c2cnc[nH]2)c1 | 1.006 ± 0.0063 | 1.04 ± 0.015 | 1.01 ± 0.011 | 1.04 ± 0.028 | 0.985 ± 0.013 | 0.9933 ± 0.0061 |
| NCC(O)c1cc(O)c(O)cc1F (centres undefined) [6-Fluoronorepinephrine hydrochloride] | 1.03 ± 0.038 | 1 ± 0.024 | 0.9913 ± 0.009 | 1.01 ± 0.025 | 1.003 ± 0.0058 | 1.003 ± 0.0058 |
| O=C(O[C@H]1C[C@H]2CC[C@@H](C1)[N+]21CCCC1)C(O)(c1ccccc1)c1ccccc1 [Trospium chloride] | 1.01 ± 0.013 | 1 ± 0.035 | 1.003 ± 0.0061 | 1 ± 0.02 | 1.006 ± 0.0063 | 1.002 ± 0.007 |
| C=CCN1CCc2cccc3c2[C@H]1Cc1ccc(O)c(O)c1-3 [R(-)-N-Allylnorapomorphine hydrobromide] | 0.992 ± 0.0052 | 0.949 ± 0.0089 | 0.988 ± 0.011 | 0.968 ± 0.02 | 0.9917 ± 0.0042 | 0.9757 ± 0.0015 |
| Cc1[nH]c2ccc(O)cc2c1CCN [2-Methyl-5-hydroxytryptamine maleate] | 1.002 ± 0.0072 | 1.01 ± 0.024 | 1 ± 0.011 | 1.06 ± 0.11 | 0.986 ± 0.002 | 0.993 ± 0.015 |
| CCCCCCCCCCCCCC(=O)O[C@@H]1[C@@H](C)[C@@]2(O)[C@@H](C=C(CO)C[C@]3(O)C(=O)C(C)=C[C@@H]23)[C@@H]2C(C)(C)[C@]12OC(C)=O [Phorbol 12-myristate 13-acetate] | 1.06 ± 0.015 | 1.13 ± 0.029 | 1.08 ± 0.045 | 1.16 ± 0.021 | 1.03 ± 0.01 | 1.01 ± 0.019 |
